Results from the supplement of paper PMC4466236.
Whole data set: some 33,000 sequences, median “E-score (dimensionless, -0.5 to 0.5)” near -0.058, cut for the highest 2% near 0.35. The list shows a part of the results.

Tested on: MvaT
Test: PBM 8-mer E-score (mean of HK and ME arrays) (E-score (dimensionless, -0.5 to 0.5)); higher = stronger relative binding preference; most listed sequences are background and not binding sites
Summary of the method: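 Full-length P. aeruginosa MvaT carrying an N-terminal glutathione S-transferase tag was tested by protein binding microarray following a previously described protocol. Two universal double-stranded 60-mer arrays, ME and HK, were used, each with a constant 25-mer primer region and a variable 35-mer region covering all 8-mers. The rank-based E-score is the mean of the two arrays, parsed with a custom script. Its range runs from -0.5 to 0.5 for each 8-mer.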

| Sequence | PBM 8-mer E-score |
| --- | --- |
| TGCGGGAA | -0.0799 |
| AAGACCTG | -0.182 |
| AAAGCGAG | 0.0339 |
| GCATTCTA | -0.0392 |
| CGAAAGGA | -0.263 |
| AAAGCACG | -0.107 |
| CACCCCCA | -0.231 |
| AACCGCTG | -0.217 |
| AATACCAG | 0.0624 |
| CCAAACAC | 0.111 |
| GCGTGGGA | -0.265 |
| GGGCCGGA | -0.315 |
| ATACCAGA | -0.0239 |
| ACCAGACG | -0.141 |
| GGTGCAAA | 0.0377 |
| ACCCTCCT | -0.239 |
| GATTGAGC | -0.101 |
| CAGTAGCA | 0.0532 |
| AATCAGGC | 0.0626 |
| GTTAAAGA | 0.11 |
| AGTATGGA | 0.215 |
| CACGATGA | -0.159 |
| AGCCCGTG | -0.121 |
| ACGTACGA | -0.134 |
| ATGGCGAG | 0.026 |

| Sequence | PBM 8-mer E-score |
| --- | --- |
| CAGCCGTA | -0.0892 |
| ATCTAAGC | 0.00999 |
| ATGTTGCG | 0.105 |
| CATACTAG | 0.203 |
| AGATCAAC | 0.053 |
| AGGTACCA | -0.0452 |
| GCCGAGTA | -0.0638 |
| ATCCAACA | 0.0114 |
| CCTGTATC | 0.0618 |
| AAGGGAAA | 0.0342 |
| CCGAAGCG | -0.161 |
| AACGGGGG | -0.194 |
| ATGGTGTG | 0.0281 |
| ACTTCCAC | 0.089 |
| GCTTTCAC | -0.189 |
| ACGAGGCC | -0.0845 |
| AACACAAC | 0.195 |
| AAAGCAAT | 0.163 |
| TGTCCTAA | 0.0665 |
| AAATACCA | 0.196 |
| GAAGCTAC | -0.117 |
| GGGGCGAA | -0.179 |
| AGAGTATC | 0.0211 |
| GGCTTACA | -0.23 |
| TACGTATA | 0.19 |

| Sequence | PBM 8-mer E-score |
| --- | --- |
| AAGGGACA | -0.039 |
| GGATGGCA | -0.137 |
| ATTGTGTG | 0.149 |
| ACCTCCGA | -0.256 |
| ACTGTGCG | -0.0338 |
| ACAACTCT | 0.174 |
| ACAACTGA | 0.0852 |
| CCCACACG | -0.127 |
| AGGTTTTG | 0.0664 |
| CACCCCCG | -0.246 |
| ACCGGTGA | -0.168 |
| GCCCTCCA | -0.396 |
| ATCTACCC | -0.128 |
| CCATTACG | -0.0598 |
| GTCTCAGA | -0.22 |
| CGATAAAC | 0.187 |
| GATTGGGC | -0.24 |
| GGAAAACA | 0.161 |
| CTCTATCA | -0.00184 |
| CAAACGTA | -0.000694 |
| ACTGACCT | -0.105 |
| GTACCGTA | 0.0554 |
| GCGTCAGC | -0.199 |
| GCTTGCCC | -0.322 |
| CGCTATAC | -0.134 |

| Sequence | PBM 8-mer E-score |
| --- | --- |
| AGGCTACC | -0.225 |
| ATGTTTTG | 0.164 |
| CAGTACGG | -0.238 |
| GAGAATTA | 0.23 |
| AAGATATT | 0.309 |
| GTATGTTA | 0.288 |
| CGACTCGC | -0.234 |
| GATTAGTA | 0.205 |
| ACCTCCGG | -0.108 |
| AGAATCCA | -0.149 |
| GGGGAATA | 0.0921 |
| TAAAACAA | 0.291 |
| GATTAATA | 0.446 |
| ACCAGACC | -0.123 |
| CCAACGAC | -0.177 |
| ATAACGAC | 0.151 |
| AAACCCGT | 0.105 |
| CCGGCTTA | -0.0869 |
| ATCTTCAC | -0.0359 |
| ACGCTTCA | -0.183 |
| GATTCAGA | -0.0136 |
| CCCTACAG | -0.282 |
| CGATCTGA | -0.0733 |
| ACAGCGGC | -0.192 |
| ACATATGT | 0.333 |

| Sequence | PBM 8-mer E-score |
| --- | --- |
| AGCTCCCC | -0.27 |
| GACCGCTC | -0.194 |
| CTCTCCAG | -0.145 |
| ACGGTGTC | -0.226 |
| AAATTGCA | 0.184 |
| CGGAACGA | -0.118 |
| GTCTAACA | 0.109 |
| ATTGAGTC | 0.0584 |
| GTCTACGA | -0.301 |
| AGTTGTCC | 0.106 |
| TGCAGAAA | 0.0834 |
| AGGACAAA | 0.0941 |
| GCGCGATA | 0.0739 |
| CACGTTCA | -0.145 |
| CCCGGTTC | -0.168 |
| AAACCGCA | -0.0461 |
| GACCCTGA | -0.26 |
| CATCTATC | 0.0336 |
| TCGGGACA | -0.0289 |
| AGTAGGTG | -0.0642 |
| CAAATTTG | 0.158 |
| TACACCCA | 0.13 |
| GGCGTTTA | -0.0134 |
| GTTTACTA | 0.147 |
| CAGTGCAA | -0.0401 |

| Sequence | PBM 8-mer E-score |
| --- | --- |
| GTTTCTAA | 0.102 |
| ATAAATTA | 0.42 |
| GTTGACGA | 0.00513 |
| CACCATAC | 0.0356 |
| ACCAGTCA | -0.0642 |
| CCAATCCC | -0.189 |
| CAACTCTC | -0.0234 |
| AAGTTAAC | 0.379 |
| CGTATGTC | -0.225 |
| ACTATCTC | 0.146 |
| ACAGCAGA | -0.0795 |
| CCAAAGGG | -0.244 |
| CCTTGCGC | -0.129 |
| CCTACACG | -0.123 |
| GGACATCC | -0.211 |
| CTATGCTA | -0.0938 |
| ATATCGAT | 0.273 |
| AAAGCTTC | -0.00541 |
| GCTTCCCA | -0.148 |
| CTATCAAC | 0.028 |
| TTAATGAA | 0.393 |
| GAGTCTAC | -0.0808 |
| CAGGGGGA | -0.274 |
| ATGTTGAC | 0.0371 |
| CGGGTTAG | -0.226 |

| Sequence | PBM 8-mer E-score |
| --- | --- |
| AATTGAGC | 0.0577 |
| CCAACTCC | -0.162 |
| CCCACGAC | -0.179 |
| TCGGGGAA | -0.167 |
| GAGTGAGC | -0.114 |
| GGGAACAA | 0.0324 |
| CGAGGGAA | -0.146 |
| CTATTGGC | 0.0175 |
| AGTCCGCG | -0.225 |
| AAGGTCAG | -0.000821 |
| CGCATAGC | -0.213 |
| AAGCACTC | -0.14 |
| GCGGAGCA | -0.101 |
| AATTTCAC | 0.201 |
| ACTCGTCT | -0.0571 |
| ACATCTTA | 0.196 |
| ACGAAGAT | 0.129 |
| ACACTGTC | -0.031 |
| CCAACAAG | -0.0849 |
| AGTGGTCC | -0.327 |
| CCTGGTAC | -0.223 |
| GTAATGTA | 0.327 |
